Source: the supplement of paper PMC10441789
The other results are listed elsewhere or left out. Antibody binding of pooled human sera (four to six donors per pool; dilution not stated) to peptides of the Trypanosoma cruzi antigen TSSA on microarrays. Quantile-normalised fluorescence in arbitrary units, mean of duplicate arrays; higher = more binding. No active / inactive call. The uninfected pools are read here as the healthy donors of the same country. The strongest signals lie near the top of the scale (about 60,000).

How the values were obtained:
Experiment in all cases: antibody binding signal (normalised fluorescence) (arbitrary fluorescence units); higher = stronger serum antibody binding to peptide
[1] = test system: pooled sera of chronic Chagas disease patients, Bolivia
Method: (§1)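 Microarray of 15-residue peptides over residues 30-55 of Trypanosoma cruzi TSSAII, each with 1 to 10 substitutions at naturally variable positions, probed with one serum pool per country.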

[2] = test system: pooled sera of chronic Chagas disease patients, Brazil
Method: as §1

[3] = test system: pooled sera of chronic Chagas disease patients, Colombia
Method: as §1

[4] = test system: pooled sera of chronic Chagas disease patients, Mexico
Method: as §1

[5] = test system: pooled sera of chronic Chagas disease patients, USA
Method: as §1

[6] = test system: pooled sera of uninfected people, Argentina
Method: as §1

[7] = test system: pooled sera of uninfected people, Bolivia
Method: as §1

[8] = test system: pooled sera of uninfected people, Brazil
Method: as §1

[9] = test system: pooled sera of uninfected people, Colombia
Method: as §1

[10] = test system: pooled sera of uninfected people, Mexico
Method: as §1

[11] = test system: pooled sera of uninfected people, USA
Method: as §1

Sequence | antibody binding signal [1] | antibody binding signal [2] | antibody binding signal [3] | antibody binding signal [4] | antibody binding signal [5] | antibody binding signal [6] | antibody binding signal [7] | antibody binding signal [8] | antibody binding signal [9] | antibody binding signal [10] | antibody binding signal [11]
TISTPPSGTENKTAT | 51100 | 50800 | 349 | 4130 | 27300 | 3940 | 637 | 366 | 993 | 695 | 602
ENKPATGETPSQPGA | 39200 | 47500 | 285 | 483 | 26000 | 422 | 857 | 448 | 218 | 1700 | 289
NKTAAGETPSQSGAS | 2490 | 5040 | 281 | 655 | 218 | 406 | 792 | 382 | 262 | 889 | 991
SGTDNKTAAGETPSP | 211 | 41700 | 421 | 290 | 999 | 138 | 628 | 1240 | 170 | 174 | 643
TDNKAAAGEAPSQSG | 18800 | 24800 | 187 | 151 | 13100 | 74.8 | 352 | 141 | 62.9 | 109 | 108
STPPSGTENKAATGE | 44800 | 48500 | 213 | 2820 | 34900 | 3770 | 398 | 359 | 534 | 352 | 348
GKEKKTATGEAPSQP | 4180 | 28300 | 4140 | 5340 | 15800 | 194 | 78.2 | 125 | 90.1 | 104 | 99.8
DKKTATGETPSPPGA | 487 | 1150 | 251 | 274 | 6860 | 259 | 172 | 207 | 128 | 283 | 400
GTEKKTAAGETPSPP | 266 | 354 | 630 | 876 | 3890 | 143 | 599 | 160 | 779 | 193 | 377
GKENKAAAGETPSPP | 521 | 14000 | 8060 | 6940 | 16100 | 339 | 175 | 88.1 | 142 | 123 | 375
KENKTAAGETPSQSG | 263 | 1010 | 527 | 286 | 1770 | 207 | 191 | 135 | 157 | 258 | 145
GTEKKAATGEAPSPP | 23500 | 29900 | 1720 | 2510 | 25100 | 583 | 816 | 180 | 608 | 145 | 197
SGKDNKAAAGEAPSQ | 7530 | 19500 | 1780 | 1240 | 7950 | 258 | 311 | 117 | 560 | 91.7 | 115
KENKAATGGAPSPPG | 423 | 1760 | 289 | 255 | 1980 | 313 | 124 | 124 | 112 | 96.8 | 232
PPSGKEKKTATGEAP | 2840 | 5770 | 2130 | 3740 | 15900 | 479 | 668 | 121 | 272 | 218 | 182
GKDNKPATGGTPSPS | 382 | 936 | 1230 | 1920 | 2090 | 292 | 696 | 172 | 245 | 129 | 106
TDNKTATGETPSQPG | 3590 | 34700 | 250 | 179 | 6750 | 126 | 533 | 383 | 246 | 143 | 237
TDNKPAAGEAPSPPG | 1150 | 32000 | 406 | 153 | 17700 | 95.7 | 327 | 258 | 105 | 267 | 78.3
GTEKKPAAGGAPSQP | 247 | 3800 | 4400 | 2040 | 1450 | 150 | 761 | 776 | 112 | 252 | 1620
PPSGKEKKPAAGEAP | 598 | 2330 | 1740 | 11600 | 9030 | 559 | 910 | 129 | 397 | 83.5 | 302
STPPSGTDKKAAAGG | 5340 | 34600 | 6330 | 45900 | 9410 | 930 | 163 | 183 | 204 | 1440 | 291
TDNKTAAGGTPSQSG | 359 | 398 | 4460 | 431 | 1330 | 442 | 294 | 1370 | 181 | 2350 | 174
TEKKTATGGTPSQPG | 562 | 926 | 6370 | 804 | 2530 | 551 | 213 | 425 | 1120 | 1050 | 228
KDKKPATGGAPSPPG | 452 | 395 | 578 | 412 | 1080 | 288 | 258 | 91.8 | 93.7 | 101 | 110
KPAAGGTPSQPGASS | 198 | 746 | 1990 | 285 | 282 | 275 | 133 | 293 | 171 | 327 | 131
TDKKPAAGETPSQSG | 325 | 10300 | 261 | 209 | 1980 | 85.2 | 353 | 157 | 734 | 177 | 99.2
TDNKPAAGGTPSPSG | 243 | 1030 | 1390 | 196 | 200 | 105 | 574 | 1040 | 575 | 360 | 115

Sequence | antibody binding signal [1] | antibody binding signal [2] | antibody binding signal [3] | antibody binding signal [4] | antibody binding signal [5] | antibody binding signal [6] | antibody binding signal [7] | antibody binding signal [8] | antibody binding signal [9] | antibody binding signal [10] | antibody binding signal [11]
DKKAATGGTPSQSGA | 520 | 444 | 947 | 693 | 1140 | 311 | 93.4 | 648 | 1010 | 170 | 166
EKKTAAGEAPSPPGA | 251 | 753 | 626 | 401 | 6190 | 182 | 1150 | 142 | 1210 | 186 | 1050
GTDNKAATGGAPSQP | 2830 | 33900 | 576 | 560 | 1380 | 294 | 630 | 1540 | 215 | 227 | 118
KDNKTATGETPSQSG | 478 | 4670 | 2100 | 276 | 6940 | 516 | 285 | 285 | 334 | 179 | 177
TPPSGTDNKAATGGA | 42500 | 48200 | 2350 | 17600 | 11700 | 1470 | 702 | 1640 | 275 | 283 | 342
SGTENKTATGGAPSQ | 12700 | 21000 | 655 | 625 | 5100 | 601 | 362 | 244 | 213 | 470 | 221
KEKKAATGGTPSQPG | 294 | 222 | 488 | 386 | 581 | 281 | 98.8 | 201 | 342 | 165 | 110
KKAAAGETPSPSGAS | 253 | 471 | 228 | 162 | 1180 | 257 | 159 | 92 | 85.4 | 88.8 | 250
TSSTPPSGTEKKAAT | 12100 | 32800 | 470 | 18900 | 2870 | 1160 | 446 | 144 | 170 | 126 | 213
GKDNKAAAGEAPSPP | 669 | 14300 | 6620 | 6490 | 10800 | 204 | 445 | 120 | 173 | 84.2 | 115
KEKKPATGGTPSPSG | 254 | 156 | 663 | 219 | 278 | 173 | 87.2 | 258 | 98.3 | 90.9 | 314
EKKPATGGAPSQSGA | 562 | 1410 | 1520 | 1440 | 1680 | 572 | 1440 | 230 | 241 | 193 | 871
GKEKKTATGGAPSPP | 216 | 459 | 4150 | 2850 | 2390 | 206 | 113 | 111 | 62.2 | 100 | 118
KDNKAAAGETPSQSG | 227 | 5990 | 159 | 197 | 212 | 276 | 1350 | 214 | 182 | 118 | 88.2
KPAAGEAPSPSGASS | 579 | 12000 | 163 | 3180 | 10400 | 159 | 148 | 130 | 85.4 | 83.2 | 204
KKPATGEAPSQSGAS | 38300 | 43600 | 181 | 248 | 31600 | 1010 | 724 | 162 | 172 | 534 | 454
KENKPAAGGTPSQSG | 211 | 489 | 501 | 358 | 238 | 260 | 167 | 298 | 164 | 114 | 151
KTAAGGAPSQSGASS | 253 | 370 | 6220 | 1170 | 250 | 299 | 155 | 152 | 114 | 361 | 206
PPSGKDNKPATGGTP | 531 | 19600 | 502 | 6720 | 11200 | 491 | 1070 | 218 | 272 | 177 | 256
STPPSGKENKPAAGG | 6140 | 27800 | 516 | 13500 | 17300 | 4600 | 2250 | 261 | 751 | 406 | 905
PPSGKDNKPAAGGAP | 1680 | 15500 | 1360 | 12500 | 10400 | 821 | 907 | 174 | 293 | 172 | 488
NKAATGETPSQSGAS | 8080 | 28200 | 196 | 199 | 11400 | 500 | 844 | 440 | 302 | 708 | 1040
NKTATGEAPSQPGAS | 39000 | 41700 | 217 | 320 | 21300 | 565 | 998 | 674 | 445 | 283 | 1080
KENKPAAGEAPSPSG | 408 | 23800 | 286 | 470 | 15400 | 185 | 307 | 135 | 121 | 130 | 131
KDKKAATGEAPSQPG | 3080 | 31700 | 118 | 174 | 17400 | 256 | 76.5 | 86.8 | 170 | 85.3 | 98.9
GTDNKPAAGGTPSPP | 255 | 41600 | 1770 | 277 | 247 | 201 | 812 | 1130 | 563 | 440 | 135
KDNKAATGGAPSQSG | 264 | 769 | 293 | 365 | 714 | 222 | 1010 | 139 | 123 | 91.6 | 85.3
